{"source": "the supplement of paper PMC3334620", "note": "In all, about 33,000 sequences were measured (“E-score (-0.5 to 0.5)”: median about -0.035, highest 2% from about 0.35 on). The list shows a part of the results.", "data": [{"target": "T1, Pdr3 (UniProt P33200)", "T1 sequence": "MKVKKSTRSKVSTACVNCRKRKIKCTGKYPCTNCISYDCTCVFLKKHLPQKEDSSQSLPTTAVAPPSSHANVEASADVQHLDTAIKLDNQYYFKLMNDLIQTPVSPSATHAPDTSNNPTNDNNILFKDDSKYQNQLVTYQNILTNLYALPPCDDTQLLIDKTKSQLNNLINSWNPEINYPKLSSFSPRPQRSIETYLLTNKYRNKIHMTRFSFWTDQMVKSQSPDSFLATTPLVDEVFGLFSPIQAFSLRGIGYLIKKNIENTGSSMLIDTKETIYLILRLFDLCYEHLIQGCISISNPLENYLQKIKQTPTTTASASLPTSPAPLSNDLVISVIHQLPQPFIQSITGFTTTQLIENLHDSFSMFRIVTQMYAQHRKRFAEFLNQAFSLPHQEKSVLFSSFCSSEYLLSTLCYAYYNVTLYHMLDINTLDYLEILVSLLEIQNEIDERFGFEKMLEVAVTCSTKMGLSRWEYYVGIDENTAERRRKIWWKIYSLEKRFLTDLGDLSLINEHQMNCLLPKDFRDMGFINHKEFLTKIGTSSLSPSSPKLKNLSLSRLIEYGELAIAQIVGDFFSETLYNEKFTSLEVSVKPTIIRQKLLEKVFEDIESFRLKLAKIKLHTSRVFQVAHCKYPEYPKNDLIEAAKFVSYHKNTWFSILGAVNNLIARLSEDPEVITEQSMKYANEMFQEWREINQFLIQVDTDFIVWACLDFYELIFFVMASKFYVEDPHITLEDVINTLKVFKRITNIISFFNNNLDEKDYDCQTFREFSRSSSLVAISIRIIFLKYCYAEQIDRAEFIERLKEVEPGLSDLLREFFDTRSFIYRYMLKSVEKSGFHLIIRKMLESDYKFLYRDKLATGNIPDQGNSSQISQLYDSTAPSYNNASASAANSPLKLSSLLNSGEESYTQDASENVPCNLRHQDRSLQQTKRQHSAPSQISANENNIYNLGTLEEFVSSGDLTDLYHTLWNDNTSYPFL", "assay": "PBM E-score (8-mer binding enrichment) (E-score (-0.5 to 0.5)); higher = stronger / more preferred TF binding; most listed sequences are background and not binding sites", "conditions": "protein concentration: 200 nM; construct: GST-full length", "protocol": "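Universal 'all 10-mer' protein binding microarrays (Agilent AMADID 015681) probed with GST-tagged S. cerevisiae TFs (full-length or DBD) made by in vitro transcription/translation (PURExpress), about 100-200 nM. Bound TF was detected with fluorescent anti-GST. Each ungapped 8-mer (which stands for itself and its reverse complement) is scored by the PBM enrichment score (E-score), a modified Wilcoxon-Mann-Whitney statistic from -0.5 to +0.5, computed with the Universal PBM Analysis Suite. Scale: above 0.35 generally sequence-specific binding.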", "values": [{"sequence": "AGCCGACG", "PBM E-score": 0.13}, {"sequence": "CTTCGGGA", "PBM E-score": 0.199}, {"sequence": "CCGCGTGA", "PBM E-score": 0.172}, {"sequence": "CGAGATCA", "PBM E-score": 0.109}, {"sequence": "CCACTCCA", "PBM E-score": 0.0401}, {"sequence": "CATTGCCA", "PBM E-score": -0.0846}, {"sequence": "CAGTGAAC", "PBM E-score": 0.0362}, {"sequence": "GCGCGGAA", "PBM E-score": 0.464}, {"sequence": "CAGGTGTA", "PBM E-score": -0.174}, {"sequence": "GCTGCGTA", "PBM E-score": -0.289}, {"sequence": "GTCCAATA", "PBM E-score": 0.0769}, {"sequence": "GAAGGGCC", "PBM E-score": 0.00364}, {"sequence": "GAGACGCA", "PBM E-score": 0.0699}, {"sequence": "GCCTGCGC", "PBM E-score": 0.00515}, {"sequence": "ACACCGGA", "PBM E-score": 0.357}, {"sequence": "GACGTAAA", "PBM E-score": -0.0886}, {"sequence": "GTAACCAA", "PBM E-score": 0.0909}, {"sequence": "ACTTTCAA", "PBM E-score": 0.0377}, {"sequence": "GATAAGAC", "PBM E-score": -0.0749}, {"sequence": "GAGACATC", "PBM E-score": 0.0232}, {"sequence": "GACTACTA", "PBM E-score": -0.163}, {"sequence": "CATGCGGG", "PBM E-score": 0.0831}, {"sequence": "CAAGCGTC", "PBM E-score": 0.0217}, {"sequence": "AGGCGGGA", "PBM E-score": 0.0996}, {"sequence": "ATGGCTAC", "PBM E-score": -0.233}, {"sequence": "AAGAAAAT", "PBM E-score": 0.0748}, {"sequence": "CAGGTACG", "PBM E-score": -0.107}, {"sequence": "CGCAATCA", "PBM E-score": 0.11}, {"sequence": "CTATAAGC", "PBM E-score": -0.129}, {"sequence": "AACCGTCC", "PBM E-score": 0.0748}, {"sequence": "ATTAAGAG", "PBM E-score": -0.0729}, {"sequence": "ACCAGCCC", "PBM E-score": 0.129}, {"sequence": "GATGCCAC", "PBM E-score": -0.139}, {"sequence": "AGTTTCGC", "PBM E-score": -0.0119}, {"sequence": "ACCTTAAC", "PBM E-score": -0.0597}, {"sequence": "GGTGTATA", "PBM E-score": -0.173}, {"sequence": "CATGTAGA", "PBM E-score": -0.0539}, {"sequence": "GCTGGATA", "PBM E-score": -0.149}, {"sequence": "ATCTGCAC", "PBM E-score": 0.0185}, {"sequence": "GACTTTCC", "PBM E-score": 0.176}, {"sequence": "AGACGATG", "PBM E-score": -0.0893}, {"sequence": "CACCACAC", "PBM E-score": 0.0302}, {"sequence": "CGTGACAG", "PBM E-score": -0.0957}, {"sequence": "ATCCGACA", "PBM E-score": 0.211}, {"sequence": "AGCGCGGG", "PBM E-score": 0.324}, {"sequence": "CCGAAGCA", "PBM E-score": 0.0824}, {"sequence": "CAACATTG", "PBM E-score": -0.0585}, {"sequence": "AACAGATA", "PBM E-score": -0.0677}, {"sequence": "ACCTATAA", "PBM E-score": -0.0817}, {"sequence": "CTGCTGTC", "PBM E-score": 0.101}, {"sequence": "ATCGAGTC", "PBM E-score": -0.0326}, {"sequence": "ACCAGGCC", "PBM E-score": 0.00289}, {"sequence": "TAAATCGA", "PBM E-score": 0.0127}, {"sequence": "CAGTGGGG", "PBM E-score": -0.129}, {"sequence": "GAGGAAAC", "PBM E-score": 0.053}, {"sequence": "CCCGCTAA", "PBM E-score": 0.0811}, {"sequence": "GATGCCTA", "PBM E-score": -0.261}, {"sequence": "GCGGTGCC", "PBM E-score": 0.105}, {"sequence": "GACTTACA", "PBM E-score": -0.318}, {"sequence": "CACTAGTA", "PBM E-score": -0.123}, {"sequence": "CGTAAAGA", "PBM E-score": -0.236}, {"sequence": "CAGACCCA", "PBM E-score": -0.119}, {"sequence": "CTGCTAGA", "PBM E-score": -0.0498}, {"sequence": "GATTGCGA", "PBM E-score": 0.116}, {"sequence": "CATATCAG", "PBM E-score": -0.0631}, {"sequence": "CGGTTGAC", "PBM E-score": 0.211}, {"sequence": "AGATTCTG", "PBM E-score": -0.136}, {"sequence": "CATACATC", "PBM E-score": -0.0515}, {"sequence": "GGGTACCC", "PBM E-score": 0.133}, {"sequence": "CAAAGCCA", "PBM E-score": -0.102}, {"sequence": "AATACTGG", "PBM E-score": 0.0346}, {"sequence": "CCCAGCAC", "PBM E-score": -0.0468}, {"sequence": "GCGTCCTA", "PBM E-score": -0.186}, {"sequence": "CCCGGCCG", "PBM E-score": 0.357}, {"sequence": "CAACTTCG", "PBM E-score": "9e-05"}, {"sequence": "CTTCCTGA", "PBM E-score": 0.0336}, {"sequence": "AGCGTCCA", "PBM E-score": -0.133}, {"sequence": "AATATTTG", "PBM E-score": 0.0496}, {"sequence": "CGCGGTGC", "PBM E-score": 0.172}, {"sequence": "AGGGGAGG", "PBM E-score": 0.0661}, {"sequence": "ATCCACAT", "PBM E-score": -0.0244}, {"sequence": "AAACAGTG", "PBM E-score": -0.0767}, {"sequence": "CAAGCTAA", "PBM E-score": -0.213}, {"sequence": "ACGCCAGA", "PBM E-score": -0.0745}, {"sequence": "AGACTCCG", "PBM E-score": 0.142}, {"sequence": "CGATTGAC", "PBM E-score": -0.0366}]}]}
